According to the supplement of paper PMC8183993:
Values joined by “and” are separate entries in the source; they are usually repeats but may differ in a detail not shown here. Identical values can stand only once. Counter-ions that a name gives are not always drawn. ± gives the standard deviation of the averaged measurements. Whole data set: some 3,100 compounds, median “mean cytoplasmic OPP incorporation (global translation) relative to DMSO” near 100, cut for the lowest 2% near 56. The list shows a part of the results. Numbered stars: 1 amine (or outer) side, 2 acyl side, 3 side chain; on linkers, the order of the positions; unused ones are H or OH. Bridge positions count the residues as written; N and C are the ends. Square brackets hold non-standard residues; d marks the D form. Peptide text beside a SMILES is read from it. * marks the point of attachment. X1 = NC1=N[C@@H]([C@H](N[*:1])C(=O)[*:2])C[C@H](O)N1; ΔAla(Z-3-ureido) = NC(=O)N/C=C(\N)C(=O)O; β3hOrn = NCCC[C@H](N)CC(=O)*; Dap = NC[C@H](N)C(=O)O

These compounds were tested on U2OS (assay: mean cytoplasmic OPP incorporation (global translation) relative to DMSO (% of DMSO); higher = more protein synthesis). Conditions: 10 µM; 24 h.
Procedure: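 Primary image-based screen in U2OS cells: compounds at 10 uM for 24 h, then a 1 h o-propargyl-puromycin (OPP) pulse, click labelling, and high-throughput microscopy. Mean cytoplasmic OPP intensity and nuclei count were normalised to DMSO wells within each plate (DMSO = 100) and averaged over triplicate plates.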

SMILES	mean cytoplasmic OPP incorporation
C#CCN(C)CCCOc1ccc(Cl)cc1Cl [Clorgyline hydrochloride]	87.7
CC(C)(CO)Cc1cc(C(C)(C)C)c(O)c(C(C)(C)C)c1	103
O=C(O)CN(CCN(CC(=O)O)CC(=O)O)CCN(CC(=O)O)CC(=O)O [Pentetic acid]	97.9
CC(C(=O)Nc1cccc(/N=C/c2c(O)ccc3ccccc23)c1)c1ccccc1 (stereo not drawn) [Salermide]	109
CC(C)NCC(O)c1cc(O)cc(O)c1 (stereo not drawn) [Metaproterenol sulfate, orciprenaline sulfate]	103
O=[N+]([O-])c1cc2nc(O)c(O)nc2cc1[N+](=O)[O-]	108
Oc1cc2c(c(Cl)c1O)CCNCC2c1ccccc1 (stereo not drawn)	92.4
CC(C)=CCC/C(C)=C/CC/C(C)=C/CC/C(C)=C/CO [Geranylgeraniol]	104
CCN(CC)Cc1cc(Nc2ccnc3cc(Cl)ccc23)ccc1O [Amodiaquin dihydrochloride dihydrate]	112
COCC(=O)O[C@]1(CCN(C)CCCc2nc3ccccc3[nH]2)CCc2cc(F)ccc2[C@@H]1C(C)C [Mibefradil dihydrochloride]	116
OC[C@H]1O[C@@H](n2cnc3c2N=CNC[C@H]3O)C[C@@H]1O [Pentostatin]	107
CN(C)c1ccccc1CN1CCCN(Cc2ccccc2N(C)C)C1c1ccncc1	101
CCC(=O)OCC(=O)[C@@]1(OC(=O)CC)[C@@H](C)C[C@H]2[C@@H]3CCC4=CC(=O)C=C[C@]4(C)[C@@]3(Cl)[C@@H](O)C[C@@]21C [Beclomethasone dipropionate (Beclometasone dipropionate)]	106
CCC(=O)OCC(=O)[C@@]1(OC(=O)CC)[C@@H](C)C[C@H]2[C@@H]3CCC4=CC(=O)C=C[C@]4(C)[C@@]3(Cl)[C@@H](O)C[C@@]21C [Beclomethasone dipropionate]	106
COc1ccc2[nH]c(C(=O)c3ccccc3)cc2c1	81.3
O=C(/C=C/C=C/c1ccc2c(c1)OCO2)N1CCCCC1 [Piperine (1-Piperoylpiperidine)]	98.8
COc1nc(N)nc2c1ncn2[C@@H]1O[C@H](CO)[C@@H](O)[C@@H]1O [Nelarabine (Arranon)]	101
OC[C@H]1O[C@H](O[C@H]2O[C@H](CO)[C@@H](O)[C@H](O)[C@H]2O)[C@H](O)[C@@H](O)[C@@H]1O [Trehalose]	94
CN(C)CCCn1cc(C2=C(c3c[nH]c4ccccc34)C(=O)NC2=O)c2ccccc21	90.7 and 79.3
CN/C(=N\c1ccc(C2=NNC(=O)CC2C)cc1)NC#N (stereo not drawn) [Siguazodan]	99.9
COc1ccccc1N1CCN(CCCNc2cc(=O)n(C)c(=O)n2C)CC1 [Urapidil hydrochloride]	99.8 ± 5.4
O=C(Nc1cccc(Nc2ncc(Br)c(NCCc3cnc[nH]3)n2)c1)N1CCCC1	86.6 ± 3.9
O=C1CCC(N2C(=O)c3ccccc3C2=O)C(=O)N1 (stereo not drawn) [Thalidomide]	97.7 ± 4.5
O=C1NCCN1CCN1CCC(c2cn(-c3ccc(F)cc3)c3ccc(Cl)cc23)CC1 [Sertindole]	108
O=C(Nc1cccc2cccnc12)c1ccc(N2C(=O)[C@@H]3[C@H](C2=O)[C@@H]2C=C[C@H]3C2)cc1 [endo-IWR 1]	105

SMILES	mean cytoplasmic OPP incorporation
CCCCc1nc(Cl)c(CO)n1Cc1ccc(-c2ccccc2-c2nnn[nH]2)cc1 [Losartan]	109
CC1(C)S[C@@H]2[C@H](NC(=O)Cc3ccccc3)C(=O)N2[C@H]1C(=O)O [Benzylpenicillin sodium]	80.8
CC1(C)S[C@@H]2[C@H](NC(=O)Cc3ccccc3)C(=O)N2[C@H]1C(=O)O [Benzathine benzylpenicillin]	104
Cc1nc2n(c(=O)c1CCN1CCC(c3noc4cc(F)ccc34)CC1)CCCC2O (stereo not drawn) [Paliperidone (Invega)]	108
CCN(CC)CCNC(=O)COc1ccc(OC)cc1 [Mefexamide hydrochloride]	99
Clc1ccc(C(Cn2ccnc2)OCc2csc3c(Cl)cccc23)c(Cl)c1 (stereo not drawn) [Sertaconazole nitrate]	110
C=CCn1c(=O)c2cnc(Nc3ccc(N4CCN(C)CC4)cc3)nc2n1-c1cccc(C(C)(C)O)n1	64.3
CC(=O)OCC1=C(C(=O)O)N2C(=O)[C@@H](NC(=O)Cc3cccs3)[C@H]2SC1 [Cephalothin sodium salt]	99.8
C[C@H]1[C@H](OC(=O)CCC(=O)O)O[C@@H]2O[C@@]3(C)CC[C@H]4[C@H](C)CC[C@@H]1[C@@]24OO3 [Artesunate]	89.4
CN(CCOc1ccc(C[C@H](Nc2ccccc2C(=O)c2ccccc2)C(=O)O)cc1)c1ccccn1	106
O=C(O)CCNC(=O)c1ccc(/N=N/c2ccc(O)c(C(=O)O)c2)cc1 [Balsalazide Sodium]	102
Cc1cccc(Nc2ccccc2C(=O)O)c1C [Mefenamic acid]	94.1
CCC(C)n1ncn(-c2ccc(N3CCN(c4ccc(OCC5COC(Cn6cncn6)(c6ccc(Cl)cc6Cl)O5)cc4)CC3)cc2)c1=O (stereo not drawn) [Itraconazole (Sporanox)]	109
CCC(C)n1ncn(-c2ccc(N3CCN(c4ccc(OCC5COC(Cn6cncn6)(c6ccc(Cl)cc6Cl)O5)cc4)CC3)cc2)c1=O (stereo not drawn) [Itraconazole]	117
CCOc1cc(N)c(Cl)cc1C(=O)NCC1CN(Cc2ccc(F)cc2)CCO1 (stereo not drawn) [Mosapride citrate]	116
C[n+]1ccccc1/C=N/O [Pralidoxime chloride]	98.4
CNCCCN1c2ccccc2CCc2ccccc21 [Desipramine hydrochloride]	108
O=C1OC(CN2CCOCC2)CN1/N=C/c1ccc([N+](=O)[O-])o1 (stereo not drawn) [Furaltadone hydrochloride]	100
Cc1ccc(-c2c(-c3nn(C)c4ncnc(N5CC[C@H](N6CCCCC6)C5)c34)cnn2C)cc1	111
O=C1c2c(O)cc(O)cc2O[C@H](c2cc(O)c(O)c(O)c2)[C@H]1O [Dihydromyricetin (Ampeloptin)]	98.1
Cc1cccc(C(=O)NCN2CCN(c3ccccc3C#N)CC2)c1	94.9
CN(C)CCCN1c2ccccc2CCc2ccccc21 [Imipramine hydrochloride]	91.1
C[C@H]1COc2c(N3CCN(C)CC3)c(F)cc3c(=O)c(C(=O)O)cn1c23 [Levofloxacin (Levaquin)]	93.6
NC(CO)C(=O)NNCc1ccc(O)c(O)c1O (stereo not drawn) [Benserazide hydrochloride]	97.5
CCN(CC)CCCCN1c2ccccc2Oc2ccc(Cl)cc21 [10-DEBC hydrochloride]	104

SMILES	mean cytoplasmic OPP incorporation
CCCC(=O)OCOC(=O)C1=C(C)NC(C)=C(C(=O)OC)C1c1cccc(Cl)c1Cl (stereo not drawn) [Cleviprex (Clevidipine)]	96.7
NCCC[C@H](N)CC(=O)N[C@H]1CNC(=O)[C@H]([C@H]2C[C@H](O)NC(N)=N2)NC(=O)/C(=C/NC(N)=O)NC(=O)[C@H](CO)NC(=O)[C@H](CO)NC1=O [Viomycin sulfate] (β3hOrn-[Dap]SS[ΔAla(Z-3-ureido)][X1]; lactam 1-C)	106
O=c1[nH]cnc2c1ncn2[C@H]1CC[C@@H](CO)O1 [Didanosine]	86.9
CN1CCN(c2ccc(OC(F)(F)F)c(Nc3ncc4c(n3)-c3c(c(C(N)=O)nn3CCO)CC4)c2)CC1	118
Nc1nc(O)c2ncn(CCC(CO)CO)c2n1 [Penciclovir]	97
Fc1ccc([C@@H]2CCNC[C@H]2COc2ccc3c(c2)OCO3)cc1 [Paroxetine Hydrochloride]	98.8
Fc1ccc([C@@H]2CCNC[C@H]2COc2ccc3c(c2)OCO3)cc1 [Paroxetine maleate]	101
O=C1NC(=O)/C(=C/c2cccc(C(F)(F)F)c2)S1	100.9 ± 0.89
Cc1cc(O)c2c(c1)C(=O)c1cc(O)cc(O)c1C2=O [Emodin]	99.3
Cn1cc(-c2ccc3nnc(Sc4ccc5ncccc5c4)n3n2)cn1	105
Clc1ccc(Nc2nnc(Cc3ccncc3)c3ccccc23)cc1 [Vatalanib dihydrochloride (PTK787)]	101
Clc1ccc(Nc2nnc(Cc3ccncc3)c3ccccc23)cc1 [Vatalanib]	125
COC(=O)c1ccc2c(C(=Nc3ccc(N(C)C(=O)CN4CCN(C)CC4)cc3)c3ccccc3)c(O)[nH]c2c1 [BIBF1120 (Vargatef)]	96.9
CCOC(=O)[C@H](CCc1ccccc1)N[C@@H](C)C(=O)N1Cc2cc(OC)c(OC)cc2C[C@H]1C(=O)O [Moexipril hydrochloride]	107
FC(F)(F)c1cccc(-c2noc(-c3cc(-c4ccccc4)c(C(F)(F)F)s3)n2)c1	107
CN1CCC(OC(c2ccccc2)c2ccccc2)CC1 [Diphenylpyraline hydrochloride]	96.2
C/C=C1\[C@H]2C=C(C)C[C@]1(N)c1ccc(=O)[nH]c1C2 [(-)-Huperzine A]	102
CN1CCN(C2CCN(C(=O)Nc3cc(Oc4ccc(NC(=O)C5(C(=O)Nc6ccc(F)cc6)CC5)c(F)c4)ccn3)CC2)CC1 [Golvatinib (E7050)]	115 ± 4.1
O=C1C(SCCO)=C(SCCO)C(=O)c2ccccc21	71.3 and 55.3
Cc1cc2c(F)c(Oc3ncnn4cc(OC[C@@H](C)O)c(C)c34)ccc2[nH]1	76.4 ± 7
COc1cc(/C=C/C(=O)CC(=O)/C=C/c2ccc(O)c(OC)c2)ccc1O [Curcumin]	96.2 ± 6
NCC[C@H](O)C(=O)N[C@@H]1C[C@H](N)[C@@H](O[C@H]2O[C@H](CN)[C@@H](O)[C@H](O)[C@H]2O)[C@H](O)[C@H]1O[C@H]1O[C@H](CO)[C@@H](O)[C@H](N)[C@H]1O [Amikacin hydrate]	93.3 ± 8.7
NCC[C@H](O)C(=O)N[C@@H]1C[C@H](N)[C@@H](O[C@H]2O[C@H](CN)[C@@H](O)[C@H](O)[C@H]2O)[C@H](O)[C@H]1O[C@H]1O[C@H](CO)[C@@H](O)[C@H](N)[C@H]1O [Amikacin sulfate]	102
